Measured values reported in the supplement of paper PMC12230231.
± gives the standard deviation of the averaged measurements. Restriction of a single-cycle SIVsab GFP reporter by TRIM5α v1-loop variants in CRFK cells. Human variants: read share among cells still uninfected after two challenges over input, higher = gained restriction. Rhesus variants: share among infected cells over input, higher = lost restriction. Reporter dose not given per row. No active / inactive call per row; the paper calls a change when both replicates lie above its controls (mean + 2 SD of stop or wild-type variants, or the top frameshift score). Residues outside the varied loop are taken from Swiss-Prot. The paper reads the human single-substitution scores as noise; they and the rhesus combinations repeat poorly (rank correlation 0.3 to 0.4), indel scores repeat only for the top variants, rhesus substitutions well (0.9).

system: SIVsab (simian immunodeficiency virus of sabaeus monkeys), single-cycle GFP reporter, in CRFK cells; experiment: enrichment among uninfected cells over input (fold); higher = stronger restriction; settings: library: human / rhesus combinations
Experimental: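 Pools of CRFK cells expressing variants of the TRIM5α v1 loop were challenged with the single-cycle reporter, sorted by GFP and sequenced; mean of two replicates.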

| Sequence | enrichment |
| --- | --- |
| MASGILVNVKEEVTCPICLELLTQPLSLDCGHSFCQACLTANHKKSMLDKGESSCPVCRISYQPENIRPNRHVANIVEKLREVKLSPEGQKVDHCARHGEKLLLFCQEDGKVICWLCERSQEHRGHHTFLTEEVAREYQVKLQAALEMLRQKQQEAEELEADIREEKASWKTQIQYDKTNVLADFEQLRDILDWEESNELQNLEKEEEDILKSLTNSETEMVQQTQSLRELISDLEHRLQGSVMELLQGVDGVIKRTENVTLKKPETFPKNQRRVFRAPDLKGMLEVFRELTDVRRYWVDVTVAPNNISCAVISEDKRQVSSPKPQIIYQARGTLFTFPSFVNFNYCTGILGSQSITSGKHYWEVDVSKKTAWILGVCAGFQPDAMCNIEKNENYQPKYGYWVIGLEEGVKCSAFQDSSFHTPSVPFIVPLSVIICPDRVGVFLDYEACTVSFFNITNHGFLIYKFSHCSFSQPVFPYLNPRKCGVPMTLCSPSS [human TRIM5α, 330-340 = QARGTLFTFPSFV] | 1.04 ± 0.17 |
| MASGILVNVKEEVTCPICLELLTQPLSLDCGHSFCQACLTANHKKSMLDKGESSCPVCRISYQPENIRPNRHVANIVEKLREVKLSPEGQKVDHCARHGEKLLLFCQEDGKVICWLCERSQEHRGHHTFLTEEVAREYQVKLQAALEMLRQKQQEAEELEADIREEKASWKTQIQYDKTNVLADFEQLRDILDWEESNELQNLEKEEEDILKSLTNSETEMVQQTQSLRELISDLEHRLQGSVMELLQGVDGVIKRTENVTLKKPETFPKNQRRVFRAPDLKGMLEVFRELTDVRRYWVDVTVAPNNISCAVISEDKRQVSSPKPQIIYQARGTRFTFPTLTNFNYCTGILGSQSITSGKHYWEVDVSKKTAWILGVCAGFQPDAMCNIEKNENYQPKYGYWVIGLEEGVKCSAFQDSSFHTPSVPFIVPLSVIICPDRVGVFLDYEACTVSFFNITNHGFLIYKFSHCSFSQPVFPYLNPRKCGVPMTLCSPSS [human TRIM5α, 330-340 = QARGTRFTFPTLT] | 0.131 ± 0.11 |
| MASGILVNVKEEVTCPICLELLTQPLSLDCGHSFCQACLTANHKKSMLDKGESSCPVCRISYQPENIRPNRHVANIVEKLREVKLSPEGQKVDHCARHGEKLLLFCQEDGKVICWLCERSQEHRGHHTFLTEEVAREYQVKLQAALEMLRQKQQEAEELEADIREEKASWKTQIQYDKTNVLADFEQLRDILDWEESNELQNLEKEEEDILKSLTNSETEMVQQTQSLRELISDLEHRLQGSVMELLQGVDGVIKRTENVTLKKPETFPKNQRRVFRAPDLKGMLEVFRELTDVRRYWVDVTVAPNNISCAVISEDKRQVSSPKPQIIYQAPGTLFQSFVNFNYCTGILGSQSITSGKHYWEVDVSKKTAWILGVCAGFQPDAMCNIEKNENYQPKYGYWVIGLEEGVKCSAFQDSSFHTPSVPFIVPLSVIICPDRVGVFLDYEACTVSFFNITNHGFLIYKFSHCSFSQPVFPYLNPRKCGVPMTLCSPSS [human TRIM5α, 330-340 = QAPGTLFQSFV] | 0.261 ± 0.36 |
| MASGILVNVKEEVTCPICLELLTQPLSLDCGHSFCQACLTANHKKSMLDKGESSCPVCRISYQPENIRPNRHVANIVEKLREVKLSPEGQKVDHCARHGEKLLLFCQEDGKVICWLCERSQEHRGHHTFLTEEVAREYQVKLQAALEMLRQKQQEAEELEADIREEKASWKTQIQYDKTNVLADFEQLRDILDWEESNELQNLEKEEEDILKSLTNSETEMVQQTQSLRELISDLEHRLQGSVMELLQGVDGVIKRTENVTLKKPETFPKNQRRVFRAPDLKGMLEVFRELTDVRRYWVDVTVAPNNISCAVISEDKRQVSSPKPQIIYQARGTLYTFPTFTNFNYCTGILGSQSITSGKHYWEVDVSKKTAWILGVCAGFQPDAMCNIEKNENYQPKYGYWVIGLEEGVKCSAFQDSSFHTPSVPFIVPLSVIICPDRVGVFLDYEACTVSFFNITNHGFLIYKFSHCSFSQPVFPYLNPRKCGVPMTLCSPSS [human TRIM5α, 330-340 = QARGTLYTFPTFT] | 0.0561 ± 0.074 |
| MASGILVNVKEEVTCPICLELLTQPLSLDCGHSFCQACLTANHKKSMLDKGESSCPVCRISYQPENIRPNRHVANIVEKLREVKLSPEGQKVDHCARHGEKLLLFCQEDGKVICWLCERSQEHRGHHTFLTEEVAREYQVKLQAALEMLRQKQQEAEELEADIREEKASWKTQIQYDKTNVLADFEQLRDILDWEESNELQNLEKEEEDILKSLTNSETEMVQQTQSLRELISDLEHRLQGSVMELLQGVDGVIKRTENVTLKKPETFPKNQRRVFRAPDLKGMLEVFRELTDVRRYWVDVTVAPNNISCAVISEDKRQVSSPKPQIIYQAPGTRFTFQTLVNFNYCTGILGSQSITSGKHYWEVDVSKKTAWILGVCAGFQPDAMCNIEKNENYQPKYGYWVIGLEEGVKCSAFQDSSFHTPSVPFIVPLSVIICPDRVGVFLDYEACTVSFFNITNHGFLIYKFSHCSFSQPVFPYLNPRKCGVPMTLCSPSS [human TRIM5α, 330-340 = QAPGTRFTFQTLV] | 0.106 ± 0.12 |
| MASGILVNVKEEVTCPICLELLTQPLSLDCGHSFCQACLTANHKKSMLDKGESSCPVCRISYQPENIRPNRHVANIVEKLREVKLSPEGQKVDHCARHGEKLLLFCQEDGKVICWLCERSQEHRGHHTFLTEEVAREYQVKLQAALEMLRQKQQEAEELEADIREEKASWKTQIQYDKTNVLADFEQLRDILDWEESNELQNLEKEEEDILKSLTNSETEMVQQTQSLRELISDLEHRLQGSVMELLQGVDGVIKRTENVTLKKPETFPKNQRRVFRAPDLKGMLEVFRELTDVRRYWVDVTVAPNNISCAVISEDKRQVSSPKPQIIYGARGTLFTFPTFVNFNYCTGILGSQSITSGKHYWEVDVSKKTAWILGVCAGFQPDAMCNIEKNENYQPKYGYWVIGLEEGVKCSAFQDSSFHTPSVPFIVPLSVIICPDRVGVFLDYEACTVSFFNITNHGFLIYKFSHCSFSQPVFPYLNPRKCGVPMTLCSPSS [human TRIM5α, 330-340 = GARGTLFTFPTFV] | 0.237 ± 0.095 |

same assay, conditions: library: insertions and deletions

| Sequence | enrichment |
| --- | --- |
| MASGILVNVKEEVTCPICLELLTQPLSLDCGHSFCQACLTANHKKSMLDKGESSCPVCRISYQPENIRPNRHVANIVEKLREVKLSPEGQKVDHCARHGEKLLLFCQEDGKVICWLCERSQEHRGHHTFLTEEVAREYQVKLQAALEMLRQKQQEAEELEADIREEKASWKTQIQYDKTNVLADFEQLRDILDWEESNELQNLEKEEEDILKSLTNSETEMVQQTQSLRELISDLEHRLQGSVMELLQGVDGVIKRTENVTLKKPETFPKNQRRVFRAPDLKGMLEVFRELTDVRRYWVDVTVAPNNISCAVISEDKRQVSSPKPQIIYGARGTRYQTFVNFNYCCTGILGSQSITSGKHYWEVDVSKKTAWILGVCAGFQPDAMCNIEKNENYQPKYGYWVIGLEEGVKCSAFQDSSFHTPSVPFIVPLSVIICPDRVGVFLDYEACTVSFFNITNHGFLIYKFSHCSFSQPVFPYLNPRKCGVPMTLCSPSS [human TRIM5α, 1-codon duplication at 345] | 1.25 ± 0.3 |
| MASGILVNVKEEVTCPICLELLTQPLSLDCGHSFCQACLTANHKKSMLDKGESSCPVCRISYQPENIRPNRHVANIVEKLREVKLSPEGQKVDHCARHGEKLLLFCQEDGKVICWLCERSQEHRGHHTFLTEEVAREYQVKLQAALEMLRQKQQEAEELEADIREEKASWKTQIQYDKTNVLADFEQLRDILDWEESNELQNLEKEEEDILKSLTNSETEMVQQTQSLRELISDLEHRLQGSVMELLQGVDGVIKRTENVTLKKPETFPKNQRRVFRAPDLKGMLEVFRELTDVRRYWVDVTVAPNNISCAVISEDKRQVSSPKPQIIYGARGTRYQTYCTGILGSQSITSGKHYWEVDVSKKTAWILGVCAGFQPDAMCNIEKNENYQPKYGYWVIGLEEGVKCSAFQDSSFHTPSVPFIVPLSVIICPDRVGVFLDYEACTVSFFNITNHGFLIYKFSHCSFSQPVFPYLNPRKCGVPMTLCSPSS [human TRIM5α, 5-codon deletion at 339] | 1.67 ± 0.58 |
| MASGILVNVKEEVTCPICLELLTQPLSLDCGHSFCQACLTANHKKSMLDKGESSCPVCRISYQPENIRPNRHVANIVEKLREVKLSPEGQKVDHCARHGEKLLLFCQEDGKVICWLCERSQEHRGHHTFLTEEVAREYQVKLQAALEMLRQKQQEAEELEADIREEKASWKTQIQYDKTNVLADFEQLRDILDWEESNELQNLEKEEEDILKSLTNSETEMVQQTQSLRELISDLEHRLQGSVMELLQGVDGVIKRTENVTLKKPETFPKNQRRVFRAPDLKGMLEVFRELTDVRRYWVDVTVAPNNISCAVISEDKRQVSSPKPYGARGTRYQTFVNFNYCTGILGSQSITSGKHYWEVDVSKKTAWILGVCAGFQPDAMCNIEKNENYQPKYGYWVIGLEEGVKCSAFQDSSFHTPSVPFIVPLSVIICPDRVGVFLDYEACTVSFFNITNHGFLIYKFSHCSFSQPVFPYLNPRKCGVPMTLCSPSS [human TRIM5α, 3-codon deletion at 326] | 0.448 ± 0.044 |
| MASGILVNVKEEVTCPICLELLTQPLSLDCGHSFCQACLTANHKKSMLDKGESSCPVCRISYQPENIRPNRHVANIVEKLREVKLSPEGQKVDHCARHGEKLLLFCQEDGKVICWLCERSQEHRGHHTFLTEEVAREYQVKLQAALEMLRQKQQEAEELEADIREEKASWKTQIQYDKTNVLADFEQLRDILDWEESNELQNLEKEEEDILKSLTNSETEMVQQTQSLRELISDLEHRLQGSVMELLQGVDGVIKRTENVTLKKPETFPKNQRRVFRAPDLKGMLEVFRELTDVRRYWVDVTVAPNNISCAVISEDKRQVSSPKPQIIYGARGTRYQTFVVNFNYCTGILGSQSITSGKHYWEVDVSKKTAWILGVCAGFQPDAMCNIEKNENYQPKYGYWVIGLEEGVKCSAFQDSSFHTPSVPFIVPLSVIICPDRVGVFLDYEACTVSFFNITNHGFLIYKFSHCSFSQPVFPYLNPRKCGVPMTLCSPSS [human TRIM5α, 1-codon duplication at 340] | 2.14 ± 2.3 |
| MASGILVNVKEEVTCPICLELLTQPLSLDCGHSFCQACLTANHKKSMLDKGESSCPVCRISYQPENIRPNRHVANIVEKLREVKLSPEGQKVDHCARHGEKLLLFCQEDGKVICWLCERSQEHRGHHTFLTEEVAREYQVKLQAALEMLRQKQQEAEELEADIREEKASWKTQIQYDKTNVLADFEQLRDILDWEESNELQNLEKEEEDILKSLTNSETEMVQQTQSLRELISDLEHRLQGSVMELLQGVDGVIKRTENVTLKKPETFPKNQRRVFRAPDLKGMLEVFRELTDVRRYWVDVTVAPNNISCAVISEDKRQVSSPKPQIIYGARGTRYQTFVNLGSQSITSGKHYWEVDVSKKTAWILGVCAGFQPDAMCNIEKNENYQPKYGYWVIGLEEGVKCSAFQDSSFHTPSVPFIVPLSVIICPDRVGVFLDYEACTVSFFNITNHGFLIYKFSHCSFSQPVFPYLNPRKCGVPMTLCSPSS [human TRIM5α, 7-codon deletion at 342] | 2.13 ± 1.2 |
| MASGILVNVKEEVTCPICLELLTQPLSLDCGHSFCQACLTANHKKSMLDKGESSCPVCRISYQPENIRPNRHVANIVEKLREVKLSPEGQKVDHCARHGEKLLLFCQEDGKVICWLCERSQEHRGHHTFLTEEVAREYQVKLQAALEMLRQKQQEAEELEADIREEKASWKTQIQYDKTNVLADFEQLRDILDWEESNELQNLEKEEEDILKSLTNSETEMVQQTQSLRELISDLEHRLQGSVMELLQGVDGVIKRTENVTLKKPETFPKNQRRVFRAPDLKGMLEVFRELTDVRRYWVDVTVAPNNISCAVISEDKRQVSSPKPGARGTRYQTFVNFNYCTGILGSQSITSGKHYWEVDVSKKTAWILGVCAGFQPDAMCNIEKNENYQPKYGYWVIGLEEGVKCSAFQDSSFHTPSVPFIVPLSVIICPDRVGVFLDYEACTVSFFNITNHGFLIYKFSHCSFSQPVFPYLNPRKCGVPMTLCSPSS [human TRIM5α, 4-codon deletion at 326] | 0.615 ± 0.024 |
